{"source": "PubChem BioAssay AID686978", "about": "(National Center for Advancing Translational Sciences (NCATS), 2013)", "note": "In all, about 420,000 compounds went through this assay and about 64,000 (15%) were called active. This list was built around the results that the source calls inconclusive (neither active nor inactive); the mix of calls is not that of the screen. Calls follow the shape of the dose curve; as a rule, active = well fitted inhibition curve with a large enough effect; inconclusive = small, poorly fitted or top-dose-only effect; inactive = flat fitted curve, though single readings scatter. No potency is given beside an inconclusive call; the fits are too rough. % is scaled to controls: 0 for no effect and ±100 for the full control effect; potency is read from the fitted curve at half-maximal effect; tags tell the direction and shape of the fitted curve."}
{"assay": "qHTS for Inhibitors of human tyrosyl-DNA phosphodiesterase 1 (TDP1): qHTS in cells in absence of CPT; also: nearly all actives have a fitted effect of over 55% in size", "conditions": "DT40 Tdp1-/- hTDP1 cells, no CPT, ATP luminescence, 48 h; activity change, negative = growth inhibition: at 46.2 µM (top of the series) unless noted", "how_it_was_run": "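A cellular qHTS used chicken DT40 cells lacking endogenous Tdp1 but carrying stably transfected human TDP1. Compounds were applied without camptothecin, and cell growth kinetics were judged by ATP-dependent luminescence after ≥48 hr.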"}
{"smiles": "CC(=O)c1ccc(N(C(=O)CNC(=O)c2ccco2)C(C(=O)NCC2CCCO2)c2ccccc2)cc1", "note": "(centres undefined)", "activity change, negative = growth inhibition": "inactive: -26.5%"}
{"smiles": "N=c1c2c(ncn1CCCO)Oc1c(ccc3ccccc13)C2c1ccccc1", "note": "(centres undefined)", "Potency": "inconclusive [inhibitor, single point]"}
{"smiles": "Cc1ccc2c(c1)N(CCCC(=O)Nc1cccc(C(F)(F)F)c1)C(=O)CO2", "Potency": "active: 16.4 µM"}
{"smiles": "COC(=O)c1ccc(N2CCN(C)CC2)c(NC(=O)COc2cccc(C)c2)c1", "Potency": "inconclusive [inhibitor, partial curve]"}
{"smiles": "CCOC(=O)c1[nH]c2ccccc2c1NC(=O)c1ccc(Br)cc1", "activity change, negative = growth inhibition": "inactive: -22.6%"}
{"smiles": "Cc1ccc([C@@H]2[C@@H]3C(=O)N(c4ccccc4)C(=O)[C@@H]3[C@]3(C)C(=O)N(Cc4ccc(-c5ccccc5)cc4)CC(=O)N23)o1", "Potency": "inconclusive [inhibitor, single point]"}
{"smiles": "O=C(CNCc1ccc(Cl)cc1)Nc1cc(S(=O)(=O)N2CCCC2)ccc1Cl", "Potency": "inconclusive [inhibitor, single point]"}
{"smiles": "CCN(Cc1nc2cc(Cl)ccc2c(=O)[nH]1)C(=O)COc1ccccc1Cc1ccccc1", "Potency": "inconclusive [inhibitor, single point]"}
{"smiles": "Cn1nccc1-c1coc2c(C(=O)NCC3CCOCC3)cccc12", "Potency": "active: 23.1 µM"}
{"smiles": "OCc1ccccc1SSc1ccccc1CO", "Potency": "active: 3.26 µM"}
{"smiles": "COc1ccccc1NS(=O)(=O)c1ccc(NN=C2CCCC2)c([N+](=O)[O-])c1", "Potency": "active: 16.4 µM"}
{"smiles": "CCOC(=O)C1=CCN(S(=O)(=O)c2ccccc2F)C1c1cccc(Cl)c1", "note": "(centres undefined)", "Potency": "inconclusive [inhibitor, single point]"}
{"smiles": "ONC(=Nc1ccc(Cl)cc1)c1ccccc1Cl", "activity change, negative = growth inhibition": "inconclusive: -34.4% [inhibitor]"}
{"smiles": "O=S(=O)(c1ccccc1)N(CC1CO1)c1cccc2ccccc12", "note": "(centres undefined)", "Potency": "active: 23.1 µM"}
{"smiles": "Cc1n[nH]c(C)c1S(=O)(=O)N1CCN(C2CCCCC2)CC1", "activity change, negative = growth inhibition": "inactive: -8.64%"}
{"smiles": "CCN(Cc1cccs1)C(=O)CN1CCN(S(=O)(=O)c2ccc3c(c2)OCCCO3)CC1", "Potency": "inconclusive [inhibitor, single point]"}
{"smiles": "CCC1(CC)Cc2ccccc2-c2nc(CN(C)C)[nH]c(=O)c21", "Potency": "active: 16.4 µM"}
{"smiles": "C[C@@H]1CN=C2N(CCNC(=O)CCC3CCCCC3)[C@H](Cc3ccc(O)cc3)CN21", "Potency": "active: 16.4 µM"}
{"smiles": "O=C(N/N=C\\c1ccc(-c2cccc(Cl)c2)o1)C(=O)NC1CCCC1", "Potency": "inconclusive [inhibitor, partial curve, poor fit]"}
{"smiles": "C[C@H](CO)N1C[C@H](C)[C@H](CN(C)Cc2cncnc2)Oc2cc(Br)ccc2S1(=O)=O", "Potency": "inconclusive [inhibitor, partial curve]"}
{"smiles": "CCCCOc1cc(C(=O)NCCN(CC)CC)c2ccccc2n1", "Potency": "active: 7.31 µM"}
{"smiles": "COCCNC(=O)C1Cc2c(-c3cccc(NC(C)=O)c3)ccnc2O1", "note": "(centres undefined)", "Potency": "inconclusive [inhibitor, single point]"}
{"smiles": "O=C(O)c1ccccc1CSc1nnc2c(n1)[nH]c1ccccc12", "activity change, negative = growth inhibition": "inactive: 2.27%"}
{"smiles": "O=C(NCCc1c[nH]c2ccccc12)C(=O)NCC(c1ccco1)N1CCN(c2ccccc2)CC1", "note": "(centres undefined)", "Potency": "inconclusive [inhibitor, single point]"}
{"smiles": "Cc1ccc(S(=O)(=O)NCCNc2ccc([N+](=O)[O-])cc2)cc1", "Potency": "inconclusive [inhibitor, single point]"}
{"smiles": "CN(C)CC/C=C1/c2cc(F)ccc2CSc2ccc(F)cc21", "activity change, negative = growth inhibition": "inactive: -7.16%"}
{"smiles": "CCCCN1C(=O)C(O)(CC(=O)c2ccc(C(C)(C)C)cc2)c2ccccc21", "note": "(centres undefined)", "Potency": "active: 14.6 µM"}
{"smiles": "CC(=O)c1ccc(NC(=O)COC(=O)c2ccccc2N=Nc2ccc(N(C)C)cc2)cc1", "Potency": "active: 20.6 µM"}
{"smiles": "C[C@@H](C(=O)NCC1CCCO1)N1C(=O)N2CCc3c([nH]c4ccccc34)[C@@]2(C)C1=O", "note": "(some centres undefined)", "Potency": "inconclusive [inhibitor, single point]"}
{"smiles": "Cc1nn(C)cc1/C=N/NC(=O)c1ccc2c(c1)OCO2", "activity change, negative = growth inhibition": "inactive: -9.18%"}
{"smiles": "O=C(Nc1ccccc1)N1CCCN(c2ccc(C(F)(F)F)cc2[N+](=O)[O-])CC1", "Potency": "inconclusive [inhibitor, single point]"}
{"smiles": "CCCn1ncc(CN2CCN(CCc3ccccc3)C(CCO)C2)c1C", "note": "(centres undefined)", "activity change, negative = growth inhibition": "inactive: 0.127%"}
{"smiles": "Cc1cccc(OC(C)C(=O)Nc2nc(-c3cccnc3)cs2)c1", "note": "(centres undefined)", "Potency": "inconclusive [inhibitor, single point]"}
{"smiles": "COc1ccc(CCNC(=O)/C=C/c2ccc(S(=O)(=O)N3CCOCC3)cc2)cc1", "activity change, negative = growth inhibition": "inactive: -0.327%"}
{"smiles": "CCN1CCN(c2ncc(C(=O)Nc3cc(Cl)c(OC)cc3OC)c3ccccc23)CC1", "Potency": "active: 20.6 µM"}
{"smiles": "N/C(CC(=O)NC1CCCCC1)=N\\OCC(=O)Nc1ccc(Cl)c(Cl)c1", "Potency": "inconclusive [inhibitor, partial curve]"}
{"smiles": "Cc1c(NN=C(C#N)C#N)c(=O)n(-c2ccccc2)n1C", "Potency": "inconclusive [inhibitor, single point]"}
{"smiles": "COC(=O)c1ccc(CN2CCOc3ccc(CN4CCC(O)(c5cccnc5)CC4)cc3C2)cc1", "Potency": "inconclusive [inhibitor, single point]"}
{"smiles": "O=[N+]([O-])c1ccc(Oc2c(F)c(F)nc(N3CCCC3)c2F)cc1", "Potency": "inconclusive [inhibitor, partial curve, poor fit]"}
{"smiles": "Cc1cc(C)c2c(N)c(S(=O)c3ccc(C(C)(C)C)cc3)sc2n1", "note": "(centres undefined)", "Potency": "inconclusive [inhibitor, partial curve]"}
{"smiles": "O=C(NCc1cccc(Cl)c1)c1ccc(-n2ccnc2)c2ccoc12", "Potency": "inconclusive [inhibitor, single point]"}
{"smiles": "CC(=O)Nc1ccc(S(=O)(=O)N(C)CC(=O)N(C)Cc2sccc2C)cc1", "activity change, negative = growth inhibition": "inactive: -11%"}
{"smiles": "CC(C)(C)OC(=O)C[C@@H]1C/C=C\\C[C@H](CC(=O)N[C@H](CO)Cc2ccccc2)C(=O)N[C@@H](Cc2c[nH]c3ccccc23)COC1=O", "Potency": "inconclusive [inhibitor, single point]"}
{"smiles": "COc1ccc(NC(=O)c2cc3c(=O)n4ccccc4nc3n2C)cc1OC", "Potency": "inconclusive [inhibitor, partial curve, poor fit]"}
